# ± gives the standard deviation of the averaged measurements. The full ranking holds about 33,000 sequences; the median of “E-score (dimensionless, -0.5 to 0.5)” is about -0.049, and the highest 2% start at about 0.37. Some of the results follow.
# System: T1, PmTbr T-box DNA-binding domain (GST fusion)
# T1 sequence: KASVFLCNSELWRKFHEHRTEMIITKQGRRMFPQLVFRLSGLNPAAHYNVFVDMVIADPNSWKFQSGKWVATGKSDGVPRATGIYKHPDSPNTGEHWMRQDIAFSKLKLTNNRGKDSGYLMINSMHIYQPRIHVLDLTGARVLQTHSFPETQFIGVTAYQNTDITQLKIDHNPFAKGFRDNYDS
# Assay: PBM E-score of 8-mer (E-score (dimensionless, -0.5 to 0.5)); Tbr is Tbrain of the sea star Patiria miniata (Pm) or the sea urchin Strongylocentrotus purpuratus (Sp); higher = stronger binding preference; most listed sequences are background and not binding sites
# Conditions: the construct has about 5 more residues each side
# Procedure, shortened: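 Each ungapped 8-mer received an enrichment E-score from the Universal PBM Analysis Suite, averaged over duplicate arrays. The proteins were Tbr T-box DNA-binding domains, covering the whole T-box plus about five flanking residues, fused to GST and expressed in BL21 E. coli at 20 °C before glutathione affinity purification. Universal Agilent oligonucleotide arrays were made double-stranded by primer extension and incubated with 200 nM protein in PBS (pH 7.5). The arrays were then scanned and quantified, and every 8-mer was scored from probe intensities.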
row,Sequence,PBM E-score of 8-mer
1,AAAACAAT,-0.175 ± 0.012
2,CATTGGGC,-0.182 ± 0.018
3,GACTTCAC,-0.0267 ± 0.026
4,ATCCTTCA,-0.143 ± 0.044
5,GCGAGCGC,0.273 ± 0.069
6,GCACTCAC,0.193 ± 0.067
7,GGCTTAAA,-0.302 ± 0.016
8,AAAATCGT,0.158 ± 0.078
9,CAGAGCGC,-0.00607 ± 0.049
10,AGATCCAT,-0.245 ± 0.04
11,GTGCCAAC,0.403 ± 0.0056
12,TAAACTTA,-0.205 ± 0.067
13,ATGGGAGA,-0.142 ± 0.094
14,CTGTTTCA,-0.166 ± 0.038
15,GGAGAACC,-0.0137 ± 0.012
16,AGGCGCGG,0.242 ± 0.019
17,AGGGTCCC,-0.212 ± 0.013
18,ATCCCTGA,-0.336 ± 0.046
19,GCGAAGCC,0.053 ± 0.00029
20,CCGAAAAG,0.00971 ± 0.0032
21,CTGTCTCA,0.0422 ± 0.0098
22,CAATATCC,-0.198 ± 0.079
23,CCGGCTCC,-0.212 ± 0.021
24,AGGGCCAC,-0.0654 ± 0.012
25,AGTGCGGA,0.265 ± 0.0086

row,Sequence,PBM E-score of 8-mer
1,GTTCGACA,0.122 ± 0.051
2,ACGTAATG,-0.235 ± 0.035
3,AGCTTTGG,-0.11 ± 0.0043
4,AAACAGAT,-0.163 ± 0.095
5,ATCCGTCC,-0.178 ± 0.078
6,CGGGTACC,-0.0986 ± 0.039
7,GAAACTTC,-0.186 ± 0.067
8,ATTTCCAC,0.0359 ± 0.044
9,ATTAAAGG,-0.094 ± 0.012
10,AGCTCTTG,-0.336 ± 0.0074
11,CCCTTACC,0.00932 ± 0.072
12,ACGAACCG,0.0516 ± 0.07
13,AGTGCTGA,0.11 ± 0.0089
14,ACGGCGGC,0.00677 ± 0.053
15,ATATATGA,-0.00737 ± 0.039
16,AACAACGC,0.124 ± 0.02
17,CGGTCCAG,-0.316 ± 0.042
18,AGCCTAAT,-0.156 ± 0.062
19,AATATTAA,-0.0683 ± 0.083
20,GACGTACC,-0.134 ± 0.069
21,ACGCTAGG,0.145 ± 0.0059
22,CTTTCGTA,-0.0543 ± 0.1
23,GCCAGGCA,0.0365 ± 0.0073
24,CACCCTTA,0.288 ± 0.0075
25,ACGTCAAA,0.0654 ± 0.076

row,Sequence,PBM E-score of 8-mer
1,GTATGATA,-0.0519 ± 0.005
2,AAGCTTGG,-0.154 ± 0.044
3,ACGCCATG,-0.0701 ± 0.038
4,AACCACCT,0.103 ± 0.007
5,CGCTGGTA,-0.0514 ± 0.001
6,AGGAGGAA,-0.13 ± 0.018
7,ATACTGGG,-0.215 ± 0.013
8,AACTAGTC,0.0212 ± 0.032
9,AACGATCG,0.0874 ± 0.024
10,ACCCAAGT,0.135 ± 0.0038
11,AGCGTGAC,0.3524 ± 0.0023
12,CAGGAACC,-0.26 ± 0.069
13,CTCTTCCC,-0.0463 ± 0.032
14,CACGTCAA,0.191 ± 0.048
15,ATATCCAT,0.013 ± 0.025
16,AATTGGTC,-0.139 ± 0.051
17,AGATCTAT,0.0629 ± 0.018
18,ACCGTTTG,-0.117 ± 0.09
19,AGGGGTCC,-0.13 ± 0.013
20,AGGGCCCC,-0.273 ± 0.02
21,TGAGCGCA,-0.14 ± 0.0064
22,CGCCCAGA,0.049 ± 0.014
23,CCTGGCGA,0.166 ± 0.031
24,TACCGTCA,0.118 ± 0.037
25,AAAGTTGC,0.147 ± 0.01

row,Sequence,PBM E-score of 8-mer
1,TAGCTCAA,-0.184 ± 0.04
2,AAGGGGGA,-0.314 ± 0.023
3,AGGTCTTG,-0.0677 ± 0.051
4,TGGCAACA,0.245 ± 0.014
5,CGGAGGAA,-0.305 ± 0.028
6,ATTGTATA,-0.246 ± 0.012
7,AATCCAGT,-0.109 ± 0.012
8,CAACAGGC,0.06467 ± 0.00054
9,CCTTAGGA,-0.198 ± 0.013
10,TATTTCAA,-0.155 ± 0.019
11,TTGCACAA,0.0126 ± 0.031
12,CGATCATC,-0.0729 ± 0.037
13,AAGGCGGT,-0.0505 ± 0.086
14,AGGCTAGG,-0.233 ± 0.026
15,AGCATGTG,0.183 ± 0.0033
16,CATGATGA,0.0524 ± 0.058
17,TACGCGAA,0.136 ± 0.036
18,AAGTATCG,0.135 ± 0.0061
19,CCGCTAAA,0.275 ± 0.022
20,CCCAGCCC,-0.102 ± 0.025
21,GGATCCAA,-0.211 ± 0.089
22,CGCGGAAG,0.11 ± 0.036
23,GCATTGCC,-0.104 ± 0.0042
24,GGAACGTA,-0.204 ± 0.057
25,ACCGGTGC,-0.139 ± 0.065

row,Sequence,PBM E-score of 8-mer
1,AATAGTTC,-0.0733 ± 0.033
2,AATAACTC,-0.065 ± 0.035
3,CAATCCCG,-0.0527 ± 0.0032
4,GAAGCACA,-0.148 ± 0.025
5,ATACCGTG,0.0987 ± 0.017
6,ACTACTTG,0.0273 ± 0.046
7,ATTTCTAC,-0.00722 ± 0.0049
8,GCACGTGA,0.225 ± 0.0076
9,AACTTAAC,0.0266 ± 0.052
10,CCCCGGGG,-0.304 ± 0.068
11,CATTAACG,0.163 ± 0.032
12,AAGAATCA,-0.0502 ± 0.015
13,ACCTGGGC,0.044 ± 0.0094
14,GGTTGAAC,-0.16 ± 0.045
15,CATTCAGA,0.01316 ± 0.00011
16,ATCCGCTA,0.0902 ± 0.015
17,GCGTGTCC,0.16 ± 0.057
18,ACACATGT,0.316 ± 0.011
19,CCTGATTC,-0.136 ± 0.021
20,ATTAAGAC,0.00011 ± 0.12
21,ATATCACG,0.184 ± 0.013
22,CGCATAAA,-0.134 ± 0.049
23,GCACTCAA,0.0191 ± 0.0037
24,ACCCCGGA,0.052 ± 0.11
25,TGTACACA,-0.0482 ± 0.031

row,Sequence,PBM E-score of 8-mer
1,AGCACCGA,-0.00405 ± 0.11
2,ATACTGGA,-0.0727 ± 0.11
3,AAAAGGCA,0.0417 ± 0.053
4,AAAGTGCT,0.342 ± 0.025
5,CAACCACA,-0.105 ± 0.015
6,AAAGGATT,-0.229 ± 0.0066
7,CTGACAAA,0.12 ± 0.038
8,GGTGTTGA,0.4746 ± 0.0036
9,AAGGCAAT,-0.188 ± 0.048
10,ATAGCCTG,-0.152 ± 0.013
11,AAGCCCAG,-0.229 ± 0.013
12,ACATAGAC,-0.176 ± 0.02
13,GACTGCAA,0.0012 ± 0.1
14,ACACATCC,0.3871 ± 0.0015
15,CGCCCCGC,0.0841 ± 0.087
16,AACGTACT,-0.213 ± 0.026
17,TCCAATAA,-0.0524 ± 0.043
18,CTAGAGTC,-0.154 ± 0.088
19,CGAGTGCG,0.225 ± 0.033
20,AGAGACTC,-0.292 ± 0.018
21,CTAAAGCA,-0.0165 ± 0.061
22,AAGGCATC,-0.111 ± 0.022
23,GTGTAAAC,0.2899 ± 0.00037
24,ATGTATCG,0.0604 ± 0.019
25,ATCAGGTG,0.404 ± 0.0092

row,Sequence,PBM E-score of 8-mer
1,ACCGGGGA,-0.3169 ± 0.002
2,ACGTTTGG,-0.0442 ± 0.0078
3,ACACTGCA,0.213 ± 0.042
4,TGAGATCA,0.177 ± 0.01
5,AGCCAACC,-0.132 ± 0.061
6,AAGACGAC,0.0321 ± 0.0016
7,CTTCTTCC,-0.0666 ± 0.097
8,AGAAAGGA,-0.138 ± 0.076
9,ATTTAACA,0.248 ± 0.0093
10,ACCAGAAC,-0.135 ± 0.037
11,AATCAAAT,-0.264 ± 0.038
12,ATACTCAT,-0.16 ± 0.018
13,CGCGTCAG,0.303 ± 0.026
14,GAGAGGAA,-0.0473 ± 0.031
15,CGGAAAAA,-0.0583 ± 0.12
16,AACTGTGG,0.00267 ± 0.0079
17,CCAATTCC,0.0614 ± 0.019
18,ATTATCGC,0.3071 ± 0.0026
19,AGGCAGGC,-0.112 ± 0.0018
20,ATGGACAA,0.133 ± 0.022
21,AGGGTATG,-0.218 ± 0.032
22,CATTTTGG,-0.253 ± 0.0098
